Patent publication US20200247897A1 (Genmab, published 2020)

Target: T1, cynomolgus monkey DR5 protein with deletion of amino acids 185-213 and death domain loss-of-function mutation … (cynomolgus monkey (Macaca fascicularis))
T1 construct: also called Cyno DR5Mfdel-K420N
T1 chain: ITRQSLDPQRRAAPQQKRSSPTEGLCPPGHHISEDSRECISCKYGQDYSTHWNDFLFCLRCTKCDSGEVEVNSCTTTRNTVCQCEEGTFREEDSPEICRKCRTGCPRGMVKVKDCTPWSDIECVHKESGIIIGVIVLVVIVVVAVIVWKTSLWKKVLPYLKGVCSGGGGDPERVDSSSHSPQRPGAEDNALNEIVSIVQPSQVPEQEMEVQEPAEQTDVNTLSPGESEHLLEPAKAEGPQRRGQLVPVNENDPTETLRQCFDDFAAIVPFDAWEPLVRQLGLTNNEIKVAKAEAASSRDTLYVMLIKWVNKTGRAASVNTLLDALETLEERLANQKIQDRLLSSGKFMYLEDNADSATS
Experiment: flow cytometry on cynomolgus DR5-transfected CHO cells; four experiments

B1: IgG1-hDR5-01-G56T-E430G (antibody)
heavy: EVQLQQSGAEVVKPGASVKLSCKASGFNIKDTFIHWVKQAPGQGLEWIGRIDPANTNTKYDPKFQGKATITTDTSSNTAYMELSSLRSEDTAVYYCVRGLYTYYFDYWGQGTLVTVSSASTKGPSVFPLAPSSKSTSGGTAALGCLVKDYFPEPVTVSWNSGALTSGVHTFPAVLQSSGLYSLSSVVTVPSSSLGTQTYICNVNHKPSNTKVDKRV[human IgG1 Fc with E430G (EU numbers) omitted]
light: EIVMTQSPATLSVSPGERATLSCRASQSISNNLHWYQQKPGQAPRLLIKFASQSITGIPARFSGSGSGTEFTLTISSLQSEDFAVYYCQQGNSWPYTFGQGTKLEIKRTVAAPSVFIFPPSDEQLKSGTASVVCLLNNFYPREAKVQWKVDNALQSGNSQESVTEQDSKDSTYSLSSTLTLSKADYEKHKVYACEVTHQGLSSPVTKSFNRGEC
  EC50: 0.27 µg/mL
